Measured values reported in PubChem BioAssay (NCATS).
Inconclusive results, whose numbers are uncertain, are shown with a selection of clear calls. Potencies beside an inconclusive call are fits to weak or partial responses and may not hold up. Activity calls are given as the source filed them. The call rests on the fitted dose curve; in most records, active means well fitted cell-killing curve with a large enough effect; inconclusive means small, poorly fitted or top-dose-only effect; inactive means flat fitted curve, though single readings scatter. Where a SMILES comes first, the peptide text is derived from it. [ ]: non-standard residue; d: D form. The star is where a group is joined. Nva = CCC[C@H](N)C(=O)O; Cbz = O=C(OCc1ccccc1)*
Potency means the concentration at half of the fitted maximal effect; tags describe the fitted curve by direction and shape.

Test: qHTS of pediatric cancer cell lines to identify multiple opportunities for drug repurposing: Primary screen for TC32 cells (AID 1347089); further: nearly all actives have a fitted effect of over 60% in size
Conditions: TC32 Ewing sarcoma viability, CellTiter-Glo luminescence, 48 h; series mostly up to 45.8 µM
Outline: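 A viability screen of TC32 cells was run over 48 h, with primary MIPE doses spanning 0.78 nM–46 µM and NPC doses 0.59 nM–46 µM. ATP luminescence (CellTiter-Glo) served as the read-out.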
With Nc1ncnc2c1c(-c1cccc(OCc3ccccc3)c1)cn2C1CC(CN2CCCC2)C1 (configuration not stated) the Potency was active: 6.58 µM.
In the case of FC(F)(F)c1ccc(C=Cc2nc(COc3ccc(CCCCn4ccnn4)cc3)co2)cc1, the Potency is reported as active: 6.58 µM.
For O=C1CSC(=O)N1C(CCc1ccncc1)COc1ccc(-c2cccc([N+](=O)[O-])c2)cc1 (configuration not stated), the Potency was inconclusive: 14.7 µM [cytotoxic, partial curve].
For O=C(O)CCNC(=O)c1ccc(N=Nc2ccc(O)c(C(=O)O)c2)cc1, the Potency was “inactive”.
With C[C@]12C=CC(=O)C=C1CC[C@@H]1[C@@H]2[C@@H](O)C[C@@]2(C)[C@@H]1CC[C@]2(O)C(=O)CO the Potency was “inactive”.
In the case of COc1ccc(-c2ccc3ncc4c(c3c2)n(-c2ccc(N3CCNCC3)c(C(F)(F)F)c2)c(=O)n4C)cn1, the Potency is reported as active: 0.0165 µM.
For CC(C)(S)[C@@H](N)C(=O)O, the Potency was “inactive”.
In the case of N#CC(=C1Nc2ccccc2S1)c1ccnc(OCc2ccc(CN3CCOCC3)cc2)n1, the Potency is reported as inconclusive: 5.87 µM [cytotoxic, full curve, poor fit].
In the case of COc1cc(CNC(=O)CCCCC=CC(C)C)ccc1O, the Potency is reported as inconclusive: 37 µM [cytotoxic, single point].
In the case of CC(C)NC[C@@H](C(=O)N1CCN(c2ncnc3c2[C@H](C)C[C@H]3O)CC1)c1ccc(Cl)cc1, the Potency is reported as inconclusive: 5.87 µM [cytotoxic, partial curve].
For Nc1ccn(C2CO[C@H](CO)O2)c(=O)n1 (some centres not stated), the Potency was “inactive”.
In the case of CCCCc1oc2ccc(NS(C)(=O)=O)cc2c1C(=O)c1ccc(OCCCN(CCCC)CCCC)cc1, the Potency is reported as inconclusive: 29.7 µM [cytotoxic, single point].
For O=C1C(c2c(O)[nH]c3ccccc23)=Nc2ccccc21, the Potency was “inactive”.
In the case of C=CC(=O)Nc1cc(NC(=O)c2ccc(C)c(NC(=O)c3ccno3)c2)cc(C(F)(F)F)c1, the Potency is reported as inconclusive: 14.7 µM [cytotoxic, partial curve, poor fit].
With C=CCc1cccc(C=NNC(=O)CN2CCN(Cc3ccccc3)CC2)c1O the Potency was inconclusive: 26.2 µM [cytotoxic, single point].
In the case of C[C@H]1O[C@@H](n2cc(F)c(=O)[nH]c2=O)[C@H](O)[C@H]1O, the Potency is reported as inconclusive: 16.5 µM [cytotoxic, partial curve].
With c1cc(N[C@@H]2CCNC2)nc(-c2cnc3ccc(-c4cn[nH]c4)cn23)c1 the Potency was inconclusive: 23.4 µM [cytotoxic, partial curve, poor fit].
In the case of O=C(CN1C(=O)C2(CCCC2)NC[C@H]1c1cc(F)cc(F)c1)Nc1ccc2c(c1)C[C@@]1(C2)C(=O)Nc2ncccc21, the Potency is reported as “inactive”.
With CO[C@@H]1C(N(C)C(=O)c2ccccc2)C[C@H]2O[C@]1(C)n1c3ccccc3c3c4c(c5c6ccccc6n2c5c31)C(=O)NC4=O (some centres not stated) the Potency was inconclusive: 8.29 µM [cytotoxic, full curve].
In the case of Cn1cnc(=N)c2[nH]cnc21, the Potency is reported as inconclusive: 5.87 µM [cytotoxic, full curve].
For CCC[C@@H](C=O)NC(=O)[C@H](CC(C)C)NC(=O)[C@H](CC(C)C)NC(=O)OCc1ccccc1 (Cbz-Leu-Leu-[Nva]-aldehyde), the Potency was active: 3.7 µM.
In the case of c1ccc(-c2oc3ncnc(NC[C@@H]4CCCO4)c3c2-c2ccccc2)cc1, the Potency is reported as inconclusive: 26.2 µM [cytotoxic, partial curve, poor fit].
